# Measured values reported in the supplement of paper PMC11417369.
# The list shows a part of the results.
# Tested on: PfAP2-HC AP2 domain (GST-tagged)
# Assay: gcPBM binding intensity (ln(normalized median fluorescence intensity)); higher = stronger DNA binding
# Procedure, shortened: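 Binding intensity is defined as the maximum Masliner-normalised natural-log median intensity across replicate spots for either probe orientation. It was measured on an Agilent 4 × 180k array of primer-extended double-stranded 36-bp intergenic genomic probes and negative controls, to which GST-tagged P. falciparum DNA-binding domains made in E. coli were applied for 1 h in 1× PBS with 1% milk, 0.2 mg/ml BSA, 0.5% salmon testes DNA and 0.03% Triton X-100. Detection was by Alexa488 anti-GST antibody and scanning at 488 nm.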
row,Sequence,gcPBM binding intensity (ln)
1,AAATATTTATACTATACACACCCAATTTAAAAAAAA [CACACA_site6669],10.2
2,GAAATAATTTCATATACACACATATACATACATACA [CACACA_site1358],9.95
3,AAAAGAATATAAAGATACATTGTGATATGGGACAAA [CACACA_negctrl_site405],9.82
4,TATATATATATTGAAGTGCAAAATACTGTACGTAAT,9.75
5,TTAATTCTACTTATTACACACATATTAATCAAAAAT [CACACA_site1478],9.7
6,TATATATATATAAACAGTACACAAATTGTAAATAAA [XGTACX_site8268],9.97
7,GTTAATATTTACTACACACACTTAAAATATGTATAT [CACACA_site4194],9.92
8,TTTTCATTTTTCTTTACACACATATATTTATTTATA [CACACA_site7119],9.97
9,ATATTATAATTAAAACGTACGTATTTATGAATTCAT [XGTACX_site1047],9.58
10,TACATAAATTAAAACACACACACACTAAAAAAAAAA [CACACA_site7130],10.5
11,TATTAATTAAACCATACACACATAATTTTTTTATAA [CACACA_site843],9.85
12,ATGGAAGGAAACAATAAAAAAAAAAAAAAATATATA [XGTACX_negctrl_site594],9.39
13,CATTTAAAGGACAAGCTGCACTTACAAAATAAAAAA,9.47
14,AATGACAACCTTGTCACACATATATATATATATATA [CACACA_site5977],9.62
15,TTTTTTATTTGACAAGCACACACTTAAATATATATA [CACACA_site3358],9.82
16,AAATGAGTATTCATATGTACACAAATAAAAAATTAA [XGTACX_site2968],9.8
17,AGGTTAAAAATAAATACACACATTTTATGTCTGTAT [CACACA_site996],9.77
18,ACTATACAGTTATACACACACATATATATATAATAT [CACACA_site310],10.1
19,TTTTTTTTTTAATAAAGTACATATAAATTACCTAAT [XGTACX_site4434],9.25
20,ATTTCTAGTTTAAGATGTACTTTAATAAAAATTATT [XGTACX_site4820],9.48
21,ATCTTTGGAAATTTATGTACTTATATTTATATTGTA [XGTACX_site6606],9.74
22,AAATATCAACAAAAATGTACAAATGTAAAAGAATAT [XGTACX_site4676],10
23,TTATAATATTATAAAATAACATTTATTAATTATTGG [CACACA_negctrl_site1794],9.34

row,Sequence,gcPBM binding intensity (ln)
1,TTATTATATTAAAATTGTACTTGCTTTCAATATGAT [XGTACX_site5305],9.48
2,TAAACGTTATATAGTGCATGTCATATTTTATTATAT [TGCATGCA_site935],9.62
3,TTCCCTCCTCAAAATTGTACTAGAATAATAACATAA [XGTACX_site8765],9.38
4,TACACGCTAAAATACACACACACACCCACATATATA [CACACA_site4153],10.6
5,TTTTTTAAACATATTATGTGTATTACATAGTTATGC [XGTACX_negctrl_site596],9.47
6,AAAAAAAAAAAAAACACACACACAAGAGTATATAAA [CACACA_site6580],11.1
7,ATGAATTTATTACATTGTACATTTTTAAAAGGTTAC [XGTACX_site124],9.48
8,TTATATATTTTTTTTTGTACATAGAAGAGGGAAAAA [XGTACX_site2178],9.19
9,TTCCAAAAAATTATTACACACATATGGGCACATATA [CACACA_site679],9.78
10,TATACATACATACATACACACACACCGATATATACA [CACACA_site8184],10.8
11,TGTTTCTGCTCTGGACATTTTTAAAAAAGGGAAAGC [CACACA_negctrl_site1463],9.29
12,ACGCTAATTATGTGCACACAAATTAAAGGTCTACAA [CACACA_site147],9.95
13,TGCCTATTTTGGATGTGTACACATATATATATTTAT [XGTACX_site6741],10.2
14,ACAAAAAAACATGAAACACACACAAATATATATATA [CACACA_site8566],10.1
15,TATAAAATTAAACAAAGTACTAGACATATATATAGA [XGTACX_site3247],9.79
16,ATTCTATAATATAAGAGTACTTATTTTTTTTAATTT [XGTACX_site7671],9.57
17,AATGTTATTTGTTTATCACACATTAGGATGTTTATA [CACACA_site5710],9.76
18,TATATTATAAACATATGTACATATGTATAAATACAT [XGTACX_site722],9.66
19,AAAAAAAAAAAAAAATTAAAGTAATGGAAAAAAAAA [CACACA_negctrl_site1666],9.38
20,AACATATATATATACACACACATATATATATGAAAT [CACACA_site279],10.4
21,ATTATTAATATTATATGTACGCACTATATCAAGGCT [XGTACX_site6468],9.6
22,AAGGTATTTATAACTACACACTTATTTATAACCTAA [CACACA_site6194],9.66
23,TATACCAATGAATGAGTGCAAAGAAGATAAGGAAAA,9.74

row,Sequence,gcPBM binding intensity (ln)
1,AATAAAATGAAATGAAATAAAAAAAAAAAAAAAATG [TGCATGCA_negctrl_site305],9.62
2,ACTTATTGTGGTTTTGCATGTAGCATTTTTACATAC [TGCATGCA_site247],9.92
3,AGCTATGTATTCTACACACACATACAGACATATATA [CACACA_site3428],10.1
4,TTTGCATTTCTTAATTGTACTTAAAAAAAAAATAAT [XGTACX_site758],9.12
5,AATCATTTTATTATCCTAACAAAAAAAAAATATATT [CACACA_negctrl_site115],9.24
6,ACGATGCATTAATCTGCACACCACAACAAAACGTTT [CACACA_site899],9.8
7,ACAACGCGTTAAATGTGTACATATTTATAAGTATAT [XGTACX_site8777],9.9
8,ATATATATATATTCCACACACACACCCAAAAAAAAA [CACACA_site3649],10.5
9,ACAAAATAAACCACGTGTACAAATTTATAATGTGTA [XGTACX_site1153],9.84
10,TTTTATTTTTTATTTGCACACAATATGTAAAAAAAT [CACACA_site2927],9.65
11,AATAATTTTTAAATATAAACATTTTTTTTTTTTTTT [GTGCAC_negctrl_site532],9.3
12,ATTAAATGCACATATACACACACCCAATTTTAAGTT [CACACA_site3049],10.6
13,TATTTTAAAAAAAAAAGTACACATAATATATATAAC [XGTACX_site5416],9.59
14,ATACATTTATTGTATTGTACATAATATTATATATTC [XGTACX_site7115],9.71
15,TAATATAATAGAAGTGTACACACATATTTATGGGTG [CACACA_site9023],10.1
16,TAATATAATGATGCAGTGCATATGTTAAAATGAAAA,9.89
17,TCAAAAGAATAATTGGTGCAAATTATATAATATAAT [GTGCAC_site9804],9.66
18,ATATTTATGGAAAAAGAACACACAATCAAACAAAAA [CACACA_site9233],10.3
19,CTTTTTTATATCTCTACACACATTTATAACCATTTG [CACACA_site4897],10.1
20,ACAAGGAATATATAAGATAATTTTAAATATAACACG [CACACA_negctrl_site1734],9.67
21,ATATATATAATTTTTACACACGCAATAAATATATAT [CACACA_site218],9.79
22,AGGAACATAAGCAATGTATAAACATAAAACTATAAT [CACACA_negctrl_site1832],9.88
23,TAAAGAGAAAAACATACACACACAACAAAATATGTA [CACACA_site8872],10.2

row,Sequence,gcPBM binding intensity (ln)
1,TATAAGGTGTCCTATACACACTCCAATAAATATATA [CACACA_site2091],9.57
2,ATTTTTTTCTTAGGAGTGCACTTATATTTATTTTAT,9.89
3,TATTAATTAAACCATACACACATAACTTTTTTATAA [CACACA_site6526],9.82
4,AAAAAAAAAAAAAACACACACACACCCACATATACA [CACACA_site2663],10.6
5,AATCAAAATATATCTACACACATTTAAGTAACACAT [CACACA_site3482],9.96
6,TTATAATAAAGAGGAGTGCAAAAAAAAAAAAAAAAA,9.24
7,TAAATATCAAAACACACACACAAAAGTGAATAAATA [CACACA_site3762],10.6
8,ACTACAAGGCAATACAGTACATATAAATGTCATAAT [XGTACX_site8468],9.72
9,TACCTTTTATTAATGTGTACCTAAAATATAATACTT [XGTACX_site192],9.68
10,AAAAAGGTTATTGGTACACACATATGTATTTATATA [CACACA_site4464],9.86
11,TAACAAAACCTTATATGTACACACATATACATCACA [XGTACX_site6772],10
12,TTAAAAATGAACATATGTACATATATATATATATAT [XGTACX_site7923],10.1
13,TTATCATTTTAAATCACACACATATATATATATATA [CACACA_site2849],9.92
14,AATAATGAAGCTTATGCACACGTTCATTATTTATAT [CACACA_site5736],9.82
15,ATAATTTTTTTTTTTTTTTTTTGAAAGTAGCATATG [CACACA_negctrl_site732],9.19
16,AAAAGAATTACTTTCACACATATATATCTGTAAATA [CACACA_site5798],9.59
17,TACATATTTATATACACACACACCCTAAAAATATAT [CACACA_site6861],10.2
18,TTTTGAATATTTGGTCGTACGTAAAAATAGATAATT [XGTACX_site5755],9.49
19,TTTCATATTTTGTCCTGTTTTTTTTTTTTTTTTCTT [CACACA_negctrl_site993],9.69
20,TATTTTATGTAAATTGGTACACATATGTCAGTAAAA [XGTACX_site7111],9.57
21,GATGCTAAAATTTATACACACAAAAAAAAAAAATTC [CACACA_site3284],9.76
